In patent US8809377B2, “Deubiquitinase inhibitors and methods for use of the same” (The Regents of the University of Michigan, priority 2010, dated 2014):

Key:
USP9X = experiment: Western / HA-UbVS labeling of USP9X in intact cells or lysates; assay type: cell-based; details: RAW264.7 cells, 5 μM, 2 hours
[1] = system: methicillin-resistant Staphylococcus aureus (MRSA); experiment: MRSA survival within macrophages; assay type: cell-based; details: RAW264.7 macrophages, 8 hr infection

CCC[C@H](NC(=O)/C(C#N)=C/c1cccc(Br)n1)c1ccccc1 [WP1130]
Usp9x DUB activity (HA-UbVS) (USP9X): Usp9x inhibition | decrease in survival of MRSA within macrophages [1]: 3-4 fold
